# According to PubChem BioAssay AID720709 (National Center for Advancing Translational Sciences (NCATS), 2013):
# The campaign covered roughly 360,000 compounds. About 520 (0.14%) were called active. This list was built around the results that the source calls inconclusive (neither active nor inactive); the mix of calls is not that of the screen. The call rests on the fitted dose curve; in most records, active means well fitted inhibition curve with a large enough effect; inconclusive means small, poorly fitted or top-dose-only effect; inactive means no such curve, though single readings can be large or run the other way. Potencies of inconclusive entries are left out as doubtful fits.
# Target: Rap guanine nucleotide exchange factor 3 (Homo sapiens) (UniProt O95398)
# Experiment: qHTS for Antagonist of cAMP-regulated guanine nucleotide exchange factor 3 (EPAC1): primary screen; further: nearly all actives have a fitted effect of over 50% in size;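 on activity change, negative = inhibition: plate controls were vehicle for no effect and positive control for full effect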
# Settings: EPAC1 GEF assay, Rap1b-BODIPY-GDP exchange fluorescence; activity change, negative = inhibition: at 115 µM (top of the series)
# Potency means the concentration at half of the fitted maximal effect; tags describe the fitted curve by direction and shape.
# Sequence of UniProt O95398 (O95398 whole entry, looked up): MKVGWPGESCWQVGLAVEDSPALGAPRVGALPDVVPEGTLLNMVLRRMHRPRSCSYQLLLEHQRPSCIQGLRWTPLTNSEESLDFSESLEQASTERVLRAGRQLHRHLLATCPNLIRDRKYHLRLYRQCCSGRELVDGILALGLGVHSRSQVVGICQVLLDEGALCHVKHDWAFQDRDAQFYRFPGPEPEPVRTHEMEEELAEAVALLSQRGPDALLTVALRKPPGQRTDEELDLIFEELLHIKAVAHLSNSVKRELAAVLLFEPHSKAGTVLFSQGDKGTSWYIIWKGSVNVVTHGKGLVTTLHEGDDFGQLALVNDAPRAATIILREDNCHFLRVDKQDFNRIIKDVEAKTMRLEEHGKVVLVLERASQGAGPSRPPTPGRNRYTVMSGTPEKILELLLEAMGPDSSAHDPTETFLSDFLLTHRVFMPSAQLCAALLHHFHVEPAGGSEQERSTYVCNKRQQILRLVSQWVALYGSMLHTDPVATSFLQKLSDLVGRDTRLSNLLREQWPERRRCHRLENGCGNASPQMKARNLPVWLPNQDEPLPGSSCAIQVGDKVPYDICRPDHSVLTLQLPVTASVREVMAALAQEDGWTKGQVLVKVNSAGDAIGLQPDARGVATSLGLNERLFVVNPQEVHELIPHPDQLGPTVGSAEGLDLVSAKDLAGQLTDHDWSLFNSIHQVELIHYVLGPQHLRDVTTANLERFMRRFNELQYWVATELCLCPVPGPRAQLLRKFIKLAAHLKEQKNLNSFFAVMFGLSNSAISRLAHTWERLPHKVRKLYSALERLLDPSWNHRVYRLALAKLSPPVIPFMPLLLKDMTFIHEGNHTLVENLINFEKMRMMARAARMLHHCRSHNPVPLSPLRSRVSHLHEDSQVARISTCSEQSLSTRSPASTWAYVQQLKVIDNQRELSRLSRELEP
SMILES,Potency,"activity change, negative = inhibition"
CC(Nc1cc(C)cc(C)c1)=[N+](C)CCNS(=O)(=O)c1ccc(Cl)cc1,"inconclusive [inhibitor, single point]",–
C[C@H]1CN([C@@H](C)CO)C(=O)CCCn2nncc2CO[C@H]1CN(C)C(=O)Oc1ccc2ccccc2c1,"inconclusive [inhibitor, single point]",–
O=C1C(=O)C(Cl)=C(Cl)C(Cl)=C1Cl,"inconclusive [inhibitor, partial curve, poor fit]",–
Cc1cc(C(C#N)c2ccc(Cl)cc2)c(Cl)cc1NC(=O)c1cc(I)cc(I)c1O (configuration not stated),"inconclusive [inhibitor, partial curve]",–
CCn1nc(-c2ccccc2)nc2c(=O)n(C)c(=O)nc1-2,"inconclusive [inhibitor, full curve]",–
CC(C)c1ccc(C(c2c(O)c3ccccc3oc2=O)c2c(O)c3ccccc3oc2=O)cc1,"inconclusive [inhibitor, single point]",–
CCCCC1(CC)COP(=O)(OCC(Cl)(Cl)Cl)OC1 (configuration not stated),"inconclusive [inhibitor, single point]",–
CN(C)c1ccc(/C=C2\C(=O)NC(=O)N(CCc3ccc(F)cc3)C2=O)cc1,"inconclusive [inhibitor, single point]",–
CCOP(=O)(C1=C(O)C(=O)C(C(C)(C)C)=CC1=O)c1ccccc1 (configuration not stated),"inconclusive [inhibitor, single point]",–
CN(C)c1nc(N(C)C)nc(N(C#N)CCCl)n1,"inconclusive [inhibitor, single point]",–
Cc1cccc2c(CCN)c[nH]c12,"inconclusive [inhibitor, full curve]",–
O=C1c2ccccc2-c2cc3ccccc3cc21,inactive,–
CN(C/N=C(\N)N[N+](=O)[O-])S(=O)(=O)c1ccccc1,"inconclusive [inhibitor, full curve, poor fit]",–
CNS(=O)(=O)c1ccc(-c2ccc(C=C3C(=O)NC(=O)NC3=O)o2)cc1,inactive,–
O=C1CC(NC(=O)C(F)(F)F)=NN1c1ccccc1,"inconclusive [inhibitor, single point]",–
COCCCNC(=O)Cn1cc(/C=C2\C(=O)NC(=O)N(c3ccccc3F)C2=O)c2ccccc21,"inconclusive [inhibitor, full curve, poor fit]",–
CN(C)c1ccc(/C=C/[N+](=O)[O-])cc1,"inconclusive [inhibitor, single point]",–
COc1cccc(-n2nc(C(=O)N3CCC4(CC3)OCCO4)c3ccccc3c2=O)c1,inactive,–
O=C1NC(=O)C(=Cc2ccc(N3CCOCC3)o2)C(=O)N1,"inconclusive [inhibitor, partial curve]",–
CC1=CC2/C=C(\C)CCC(O)C(O)/C=C/C(=O)C23C(=O)NC(CC(C)C)C3C1C (configuration not stated),"inconclusive [inhibitor, single point]",–
CCOC(=O)c1[nH]c2ccc(OC)cc2c1C(SCC(=O)O)c1ccc(C(F)(F)F)cc1 (configuration not stated),"inconclusive [inhibitor, partial curve]",–

SMILES,Potency,"activity change, negative = inhibition"
COc1ccc(-n2c(O)c(/C=C/C=Nc3ccccc3)c(=O)[nH]c2=O)cc1,inactive,–
CN(C)C1(CNC(=O)Cc2ccccc2F)CCCCC1,–,inconclusive: -20% [inhibitor]
CC(C)C[C@H]1C(=O)N2CCC[C@H]2[C@]2(O)O[C@](NC(=O)[C@@H]3C=C4c5cccc6[nH]cc(c56)C[C@H]4N(C)C3)(C(C)C)C(=O)N12,inactive,–
CC(=O)OC1CCC2(C)C(CC(=O)C3C2CCC2(C)C(OC(C)=O)CCC32)C1 (configuration not stated),"inconclusive [inhibitor, single point]",–
COC(=O)C1=C(c2ccc(F)cc2OCc2ccccc2)C[C@@H]2CC[C@H]1N2C(=O)NCc1ccco1,"inconclusive [inhibitor, partial curve]",–
COC(=O)C1=C(c2ccc(Cl)c(C(F)(F)F)c2)C[C@@H]2CC[C@H]1N2C(=O)N1CCC(O)(c2ccc(Cl)cc2)CC1,"inconclusive [inhibitor, full curve, poor fit]",–
O=[N+]([O-])c1ccc(Cl)c([N+](=O)[O-])c1,"inconclusive [inhibitor, partial curve]",–
CCCCn1c(=O)c(C(=O)NCc2ccccc2Cl)c(O)c2ccccc21,inactive,–
Clc1ccc(N2CCNCC2)nn1,inactive,–
O=P(Nc1cccnc1)(Oc1ccccc1Cl)Oc1ccccc1Cl,inactive,–
COc1ccc(CN2CC=C(c3ccc(F)cc3)CC2)cc1Br,inactive,–
CCOc1ccc(N2C(=O)CC(=O)NC2=O)cc1,inactive,–
CCCn1c(C(=O)c2ccccc2)nc2ccccc21,"inconclusive [inhibitor, partial curve]",–
O=S(=O)(c1ccc(F)cc1)N1CN2CCN(C2)C1,"inconclusive [inhibitor, partial curve]",–
Cn1cccc1/C=C1\C(=O)NC(=O)N(Cc2ccco2)C1=O,"inconclusive [inhibitor, partial curve]",–
Cc1cc(C=C2C(=O)NC(=S)NC2=O)c(C)n1C1CCCC1,"inconclusive [inhibitor, partial curve, poor fit]",–
COc1ccccc1N=Nc1c(O)[nH]c(=S)[nH]c1=O,"inconclusive [inhibitor, single point]",–
COC(=O)C1=C(c2cccc(OCc3ccccc3)c2)C[C@@H]2CC[C@H]1N2C,"inconclusive [inhibitor, single point]",–
COC(=O)COc1ccc(/C=C2\C(=O)NC(=S)N(c3ccc(C)cc3)C2=O)cc1OC,inactive,–
Cc1cccc(N2C(=O)/C(=C/c3ccc(CN(CCC#N)S(C)(=O)=O)o3)C(=O)NC2=S)c1,"inconclusive [inhibitor, full curve]",–
CN(Cc1cccc(-c2ccncc2)c1)C(=O)Oc1ccccc1Cl,"inconclusive [inhibitor, partial curve]",–
